Earlier results as cited in US20220226297A1 (Animal Ethics Pty Ltd, priority 2019, published 2022).

Conditions: in vivo

In the case of `CCCCN1CCCCC1C(=O)Nc1c(C)cccc1C` (stereo not shown) [bupivacaine], the “duration of anaesthesia, up to” value is given as 6 to 12 h.
